Data as given in article PMC9834408, “The SPOC domain is a phosphoserine binding module that bridges transcription machinery with co- and post-transcriptional regulators” (Nature Communications, 2023).
No constants are given. Whether binding was seen depends on the method and setting. In cells and extracts the contact can be indirect. Some entries that bind do so weakly or less than the wild type. For part of these data: Where a sequence is shown, tags or fusion partners need not be part of it.

Chains of the proteins cited; added tags and fusions are not shown.
UniProt P12004: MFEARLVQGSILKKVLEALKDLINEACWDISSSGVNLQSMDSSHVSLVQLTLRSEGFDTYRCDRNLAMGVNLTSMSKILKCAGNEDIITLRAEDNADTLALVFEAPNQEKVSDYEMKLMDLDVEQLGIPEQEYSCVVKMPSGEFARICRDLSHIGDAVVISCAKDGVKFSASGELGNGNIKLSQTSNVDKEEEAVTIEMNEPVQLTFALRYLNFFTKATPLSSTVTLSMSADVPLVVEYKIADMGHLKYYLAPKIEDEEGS
UniProt Q69YN4: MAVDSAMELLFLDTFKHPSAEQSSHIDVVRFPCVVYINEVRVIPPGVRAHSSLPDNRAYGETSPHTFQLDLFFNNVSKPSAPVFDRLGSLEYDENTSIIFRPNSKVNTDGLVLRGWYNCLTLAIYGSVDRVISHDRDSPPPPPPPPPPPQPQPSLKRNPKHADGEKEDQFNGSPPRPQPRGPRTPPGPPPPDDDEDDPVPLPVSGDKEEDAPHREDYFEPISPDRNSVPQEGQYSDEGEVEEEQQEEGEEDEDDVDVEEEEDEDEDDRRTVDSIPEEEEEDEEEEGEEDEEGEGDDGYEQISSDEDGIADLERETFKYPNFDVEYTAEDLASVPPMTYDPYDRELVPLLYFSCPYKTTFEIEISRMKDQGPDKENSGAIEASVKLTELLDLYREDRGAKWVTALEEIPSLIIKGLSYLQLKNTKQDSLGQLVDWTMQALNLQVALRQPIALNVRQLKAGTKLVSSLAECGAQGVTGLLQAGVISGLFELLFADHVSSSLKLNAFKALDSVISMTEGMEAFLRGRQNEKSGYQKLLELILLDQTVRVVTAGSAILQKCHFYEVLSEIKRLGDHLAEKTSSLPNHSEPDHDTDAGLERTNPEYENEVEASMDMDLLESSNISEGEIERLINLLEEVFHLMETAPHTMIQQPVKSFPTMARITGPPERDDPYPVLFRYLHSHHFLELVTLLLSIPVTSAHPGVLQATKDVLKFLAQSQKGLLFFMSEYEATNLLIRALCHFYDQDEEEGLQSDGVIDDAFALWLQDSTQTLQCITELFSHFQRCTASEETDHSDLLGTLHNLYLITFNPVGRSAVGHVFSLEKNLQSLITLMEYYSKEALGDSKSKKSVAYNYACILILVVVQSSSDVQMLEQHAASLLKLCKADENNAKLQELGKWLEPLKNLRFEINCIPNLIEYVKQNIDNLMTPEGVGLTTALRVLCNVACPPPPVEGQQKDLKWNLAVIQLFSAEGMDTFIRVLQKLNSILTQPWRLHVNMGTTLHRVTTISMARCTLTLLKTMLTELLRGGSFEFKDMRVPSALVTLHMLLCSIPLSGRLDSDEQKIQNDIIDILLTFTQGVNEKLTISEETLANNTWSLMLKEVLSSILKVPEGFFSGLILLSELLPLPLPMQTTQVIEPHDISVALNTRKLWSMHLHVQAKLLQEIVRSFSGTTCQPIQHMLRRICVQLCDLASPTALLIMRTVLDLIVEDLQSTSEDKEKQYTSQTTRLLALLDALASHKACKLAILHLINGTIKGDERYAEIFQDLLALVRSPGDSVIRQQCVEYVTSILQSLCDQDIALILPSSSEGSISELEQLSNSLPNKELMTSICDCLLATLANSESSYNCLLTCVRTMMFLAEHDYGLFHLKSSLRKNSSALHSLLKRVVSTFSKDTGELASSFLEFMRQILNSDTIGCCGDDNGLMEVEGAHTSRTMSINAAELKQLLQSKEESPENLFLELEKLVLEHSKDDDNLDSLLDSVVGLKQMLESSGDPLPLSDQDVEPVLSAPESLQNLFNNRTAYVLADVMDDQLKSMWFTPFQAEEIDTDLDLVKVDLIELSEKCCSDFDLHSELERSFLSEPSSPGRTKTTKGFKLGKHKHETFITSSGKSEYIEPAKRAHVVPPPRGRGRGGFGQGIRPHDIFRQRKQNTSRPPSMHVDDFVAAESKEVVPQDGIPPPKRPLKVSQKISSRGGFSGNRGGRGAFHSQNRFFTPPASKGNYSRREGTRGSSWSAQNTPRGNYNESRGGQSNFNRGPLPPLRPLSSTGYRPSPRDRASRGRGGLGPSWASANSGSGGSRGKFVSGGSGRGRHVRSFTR
UniProt Q5T200: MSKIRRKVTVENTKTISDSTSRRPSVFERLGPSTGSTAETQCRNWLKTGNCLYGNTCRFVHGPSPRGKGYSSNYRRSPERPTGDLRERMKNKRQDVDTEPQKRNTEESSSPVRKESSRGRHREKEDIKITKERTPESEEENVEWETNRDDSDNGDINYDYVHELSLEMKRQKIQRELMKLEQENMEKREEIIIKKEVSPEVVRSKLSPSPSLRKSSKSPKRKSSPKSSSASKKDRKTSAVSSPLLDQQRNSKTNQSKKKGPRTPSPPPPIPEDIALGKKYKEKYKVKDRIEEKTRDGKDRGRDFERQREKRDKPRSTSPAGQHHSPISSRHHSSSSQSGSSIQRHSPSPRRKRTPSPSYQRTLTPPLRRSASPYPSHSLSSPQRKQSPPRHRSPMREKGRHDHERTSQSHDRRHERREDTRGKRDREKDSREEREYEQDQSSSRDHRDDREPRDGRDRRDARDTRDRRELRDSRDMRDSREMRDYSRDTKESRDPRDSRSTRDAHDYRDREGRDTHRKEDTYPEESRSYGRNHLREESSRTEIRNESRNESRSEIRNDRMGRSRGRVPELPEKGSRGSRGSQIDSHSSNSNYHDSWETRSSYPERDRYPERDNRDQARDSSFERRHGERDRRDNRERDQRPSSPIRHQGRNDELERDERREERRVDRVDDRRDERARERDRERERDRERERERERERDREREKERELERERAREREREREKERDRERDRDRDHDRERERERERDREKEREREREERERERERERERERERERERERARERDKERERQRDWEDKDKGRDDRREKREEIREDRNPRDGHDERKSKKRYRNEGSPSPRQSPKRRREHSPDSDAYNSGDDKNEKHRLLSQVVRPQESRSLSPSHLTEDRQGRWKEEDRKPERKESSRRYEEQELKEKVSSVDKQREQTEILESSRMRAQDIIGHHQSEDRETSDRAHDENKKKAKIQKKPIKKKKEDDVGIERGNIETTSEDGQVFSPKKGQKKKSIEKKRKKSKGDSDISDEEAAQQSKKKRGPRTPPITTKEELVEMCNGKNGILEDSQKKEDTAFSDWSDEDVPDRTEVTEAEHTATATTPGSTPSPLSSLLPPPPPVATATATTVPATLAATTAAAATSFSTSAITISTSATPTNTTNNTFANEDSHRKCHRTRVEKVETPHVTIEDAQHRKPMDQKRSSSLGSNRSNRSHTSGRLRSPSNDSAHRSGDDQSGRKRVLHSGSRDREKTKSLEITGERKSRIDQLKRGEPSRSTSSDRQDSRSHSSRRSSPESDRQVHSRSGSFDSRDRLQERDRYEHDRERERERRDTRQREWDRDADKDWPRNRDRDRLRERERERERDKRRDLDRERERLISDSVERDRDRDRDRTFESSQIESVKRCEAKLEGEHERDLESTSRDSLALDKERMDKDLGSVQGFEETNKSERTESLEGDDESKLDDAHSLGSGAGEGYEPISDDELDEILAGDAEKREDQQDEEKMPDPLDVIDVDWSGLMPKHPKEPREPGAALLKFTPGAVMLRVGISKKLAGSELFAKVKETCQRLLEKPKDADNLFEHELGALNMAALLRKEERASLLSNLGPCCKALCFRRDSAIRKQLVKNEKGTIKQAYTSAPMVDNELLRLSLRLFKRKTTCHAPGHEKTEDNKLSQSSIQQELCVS
UniProt Q9H5H4: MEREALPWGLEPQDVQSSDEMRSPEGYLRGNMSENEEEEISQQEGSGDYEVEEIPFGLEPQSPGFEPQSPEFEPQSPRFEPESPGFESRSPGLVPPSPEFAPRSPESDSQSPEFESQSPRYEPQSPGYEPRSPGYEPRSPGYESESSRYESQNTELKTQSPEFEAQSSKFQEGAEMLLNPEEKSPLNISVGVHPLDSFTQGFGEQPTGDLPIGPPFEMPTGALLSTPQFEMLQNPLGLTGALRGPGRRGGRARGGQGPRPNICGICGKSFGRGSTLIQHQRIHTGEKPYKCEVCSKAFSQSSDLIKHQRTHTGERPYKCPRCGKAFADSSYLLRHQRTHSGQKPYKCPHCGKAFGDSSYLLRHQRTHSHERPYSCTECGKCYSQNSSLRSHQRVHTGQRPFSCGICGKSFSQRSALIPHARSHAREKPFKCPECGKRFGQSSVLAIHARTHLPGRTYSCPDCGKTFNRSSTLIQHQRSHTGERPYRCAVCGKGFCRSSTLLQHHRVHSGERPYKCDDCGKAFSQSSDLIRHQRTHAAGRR

Assays:
Test in all cases: co-IP; anti-FLAG M2 beads; 3×FLAG-tagged SPOC domains, full-length or ΔSPOC proteins expressed in HEK293T; lysis in 50 mM Tris-Cl pH 8, 150 mM NaCl, 0.1% Triton with benzonase; elution with 3×FLAG peptide; western blot; performed once
[1] = biological target: 3×FLAG-NLS-RBM15-SPOC (human) (UniProt Q96T37)
[2] = biological target: 3×FLAG-RBM15 (human) (UniProt Q96T37)
[3] = biological target: 3×FLAG-PHF3 (human) (UniProt Q92576)
[4] = biological target: 3×FLAG-DIDO3 (human) (UniProt Q9BTC0)

binding [1] | binding [2] | binding [3] | binding [4] | Substance
binds | no binding |  |  | PCNA (from UniProt P12004 1-261)
binds |  |  |  | VIRMA/KIAA1429 (from UniProt Q69YN4 1-1812)
binds |  |  |  | ZC3H13 (from UniProt Q5T200 1-1668)
 |  | binds | binds | ZNF768 (from UniProt Q9H5H4 1-540)
